Measurements reported in ChEMBL document CHEMBL1201862, “PubChem BioAssay data set” (2004).
Several values for one entry are separate records, joined by “and”; a condition that tells them apart may be missing. Equal entries are not always repeated. Structures can show the parent of a compound that is named as a salt.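 Each compound was tested at five concentrations against cells in 96-well plates for 48 hours. The concentration for 50% growth inhibition is given as GI50.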 Activity calls are given as the source filed them. Cut-off read from the data, not from the text of the source: active = GI50 up to about 1.1 µM and inactive = higher.

These compounds were tested on NCI-H322M (assay: DTP human tumour cell line panel, 48 h).

SMILES	GI50
CCC1=NC(N/N=C/c2ccco2)=N/C1=C\c1ccco1	inactive: > 100 µM
c1cc(CN2CCNCCNCCNCC2)cc(CN2CCNCCNCCNCC2)c1	inactive: > 100 µM
O=C(CCC(=O)Nc1ccc(Cl)c(Cl)c1)CC(=O)c1ccc2ccccc2c1	inactive: > 100 µM
CC1CC[C@@]2(OC1)OC1C[C@H]3[C@@H]4CC=C5CC(OC6OC(CO)C(OC7OC(CO)C(O)C(OC8OCC(O)C(O)C8O)C7OC7OC(CO)C(O)C(O)C7O)C(O)C6O)CCC5(C)[C@H]4CCC3(C)C1[C@@H]2C (stereo not given in full)	inactive: 4.81 µM
COc1ccc2cc(Oc3ccc(Cl)cc3)c(=O)oc2c1	inactive: > 100 µM
C[n+]1c(-c2ccc(/C=N\NC(=O)c3ccc(C(=O)N/N=C/c4ccc(-c5cn6ccsc6[n+]5C)cc4)cc3)cc2)cn2ccsc21	inactive: 17.7 µM
CC(=O)OC(OC(C)=O)c1ncccc1C(=O)OC(C)C	inactive: > 100 µM
CC1CN1c1c(C(=O)/C=C/c2ccc(F)cc2)c(-c2ccccc2)nn(C)c1=O (stereo not given)	inactive: 17.6 µM
CC[C@H](C)[C@H]1NC(=O)[C@@H](NC(=O)[C@@H](CC(C)C)N(C)C(=O)C2CCCN2C(=O)[C@H](C)O)[C@@H](C)OC(=O)[C@@H]2Cc3ccccc3CN2C(=O)[C@@H]2CCCN2C(=O)[C@H](CC(C)C)NC(=O)[C@@H](C)C(=O)[C@H](C(C)C)OC(=O)C[C@@H]1O (stereo not given in full)	active: 0.387 µM
CC1=CC(=O)/C(=C/N2C(=O)CNC2=S)C(=O)O1	inactive: > 100 µM
Oc1cc(-n2cccn2)c(O)cc1-n1cccn1	inactive: > 70.3 µM
COc1ccc(C(=C(I)c2ccccc2)c2ccc(OC)cc2)cc1	inactive: > 100 µM
O=C(/C=C\c1ccc(Cl)c(Cl)c1)c1ccc(Cl)cc1Cl	inactive: 18.3 µM
CC(=N\N)/C(C)=N/N=C(C)/C(C)=N/N	inactive: > 100 µM
CC(C)(C)[Si](C)(C)OCC1OC(n2cnc3c(=O)[nH]cnc32)CC1O (stereo not given)	inactive: > 100 µM
C[N+](C)(C)CC1CCC(C[N+](C)(C)C)C1=NO (stereo not given)	inactive: > 100 µM
NC1C[C@H](n2cc(/C=C/Br)c(=O)[nH]c2=O)C[C@@H]1CO (stereo not given in full)	inactive: > 100 µM
O=C(/C=C(\O)C(=O)O)/C=C(\O)c1ccccc1Cl	inactive: > 100 µM
O=c1cc(-c2ccccc2)[nH]c2cc(F)c(F)cc12	active: 0.455 µM
COC(=O)NN=C(c1ccc(Cl)cc1)c1ccc(Cl)cc1	inactive: > 100 µM
CCCCCC(/C=C/c1ncccc1OCCCCCC(=O)O)=N\NC1=NCCN1	inactive: > 100 µM
C(=N/NC1=NCCN1)/c1c2ccccc2c(/C=N\NC2=NCCN2)c2ccccc12	active: 0.104 µM
CC(C)c1cc(CN(C)C)c(O)c(C(C)(C)C)c1	inactive: > 100 µM

SMILES	GI50
CCOC(=O)c1c(-c2ccc(Cl)cc2)c(C#N)c(=S)n(C2OC(COC(C)=O)C(OC(C)=O)C(OC(C)=O)C2OC(C)=O)c1C (stereo not given)	inactive: > 100 µM
Cc1ccc([N+](=O)[O-])c2c(NCCNC(=O)Cn3ccnc3[N+](=O)[O-])ccnc12	inactive: 42 µM
CCOC(=O)C(NC(=O)c1ccc(/N=N/N(C)C)cc1)C(C)C (stereo not given)	inactive: > 100 µM
Cc1c(NC(=O)c2cc([N+](=O)[O-])cc([N+](=O)[O-])c2)c(=O)n(-c2ccccc2)n1C	inactive: > 100 µM
Cn1c(=O)c(Cl)c(N=[N+]=[N-])c2ccccc21	inactive: > 100 µM
CCOC(=O)C(C)(Cc1ccc(O)cn1)NC(=O)c1ccccc1 (stereo not given)	inactive: > 100 µM
CSc1ncnc2c1ncn2C1CC(Oc2ccc(C)cc2)C(COc2ccc(C)cc2)O1 (stereo not given)	inactive: > 100 µM
OC1C2CN3CCN(C2)CC1(c1ccccc1)C3 (stereo not given)	inactive: > 100 µM
CN1C2=C(CC3=C1CC(C)(C)CC3=O)C(=O)CC(C)(C)C2	inactive: > 100 µM
Cc1cccc(C(C)(C)C)c1NC(=O)C(C#N)C1=C(Cl)C(=O)c2ccccc2C1=O (stereo not given)	inactive: 19.1 µM
O=C(CSc1ncccn1)N/N=C/c1ccccc1OCc1ccccc1	inactive: 45.3 µM
O=C(NCCCC/N=c1/cccccc1NCCCCNC(=O)OCc1ccccc1)OCc1ccccc1	inactive: 23.8 µM
COc1cccc([C@@H]2C/C(=N\NC(=O)C(=O)N[C@@H](C)c3ccccc3)c3cc4c(cc3N2)OCO4)c1	inactive: 58.6 µM
Cc1cn(C2CC(SCCO)C(CO)O2)c(=O)[nH]c1=O (stereo not given)	inactive: > 100 µM
Cc1[nH]c2[nH]c(=S)nc(NC(N)=S)c2c1Cc1ccccc1	inactive: 68.1 µM
O=S(O)CCCCSSCC(O)C(O)CSSCCCCS(=O)O (stereo not given)	inactive: 60.5 µM and inactive: 44.4 µM
CCCCCCCCCC(=O)NC(Cc1ccc(O)cc1)C(=O)NCCCNCCCCNCCCNC(=O)[C@@H](N)CCCN=C(N)N (stereo not given in full)	inactive: 84.3 µM
Cc1cc(O)nc(NNC(C#N)c2ccc(N(C)C)cc2)n1 (stereo not given)	inactive: > 100 µM
CCOC(=O)C(C(=S)SC)c1nn2c(=O)cc(C)nc2s1 (stereo not given)	inactive: 20.6 µM
CCCCC/C=C\C=C1\C(=O)C=C[C@@H]1C/C=C\CCCC(=O)O	inactive: 6.18 µM
CCCCCCCc1cscc1-c1cscc1Br	inactive: > 100 µM
Oc1c2cc(Cl)cc1COCc1cc(Cl)cc(c1O)COCc1cc(Cl)cc(c1O)COC2	inactive: > 100 µM
CSC1=C(C(=O)Nc2ccccc2)C(N)=NC1=O	inactive: > 100 µM

SMILES	GI50
CCCCNC(=S)Nc1nc(C(=O)NNC(=S)NCC)cs1	inactive: 98.2 µM
Cn1c(=O)oc2cc(C(=S)N3CCCCC3)ccc21	inactive: > 100 µM
CC(=O)c1ccc(NC(=O)C(=O)CC(=O)c2sc(-n3nc(-c4ccccc4)cc3-c3ccccc3)nc2C)cc1	inactive: > 100 µM
CC1CCC2(NC1)OC1CC3C4CC=C5CC(OC6OC(CO)C(OC7OC(C)C(O)C(O)C7O)C(O)C6OC6OC(C)C(O)C(O)C6O)CCC5(C)C4CCC3(C)C1C2C (stereo not given)	inactive: 2.31 µM
COC(=O)C1CCC(N2C(=O)CCC2C(=O)OC)=N1 (stereo not given)	inactive: > 100 µM
NC1=C(Cl)C(=O)c2c(O)ccc(O)c2C1=O	inactive: 1.74 µM
CCOC(=O)C(C)(C)Oc1ccc2c(=O)cc(-c3ccc(Cl)cc3)oc2c1	inactive: > 100 µM
COCc1nc(N)nc(N2N=C(C)CC2(C)C)n1	inactive: > 100 µM
Nc1nc(Cl)cc(NCCCNc2cc(Cl)nc(N)n2)n1	inactive: > 100 µM
O=c1c(C(c2ccc(/C=C/c3ccccc3)cc2)c2c(O)oc3cc(O)ccc3c2=O)c(O)oc2cc(O)ccc12	inactive: > 100 µM
C=C1C(=O)OC2CC3(C)OC3CC/C(C)=C/C(OC(C)=O)C12 (stereo not given)	inactive: 14.6 µM
COc1ccc2c(c1)CC1=C(O2)c2ccc(OC)cc2OC1	inactive: 63 µM
COC(=O)C1CC2(C)C=CC1N(C(=O)OCc1ccccc1)C2 (stereo not given)	inactive: > 100 µM
CC(=O)N(O)CCCCCNC(=O)CCC(=O)N(O)CCCCCNC(=O)CCC(=O)N(O)CCCCCN [DEFEROXAMINE HYDROCHLORIDE]	inactive: 20.1 µM
O=C1CC(c2ccccc2)NCCCCN2CC(CN1)C(C(O)c1ccccc1)C2=O (stereo not given)	inactive: > 100 µM
c1ccc(CC2COC(c3cccs3)=N2)cc1 (stereo not given)	inactive: > 100 µM
COC(=O)C1(C#N)C(C)(C)N=C(c2ccccc2)C12CCCCC2 (stereo not given)	inactive: > 100 µM
CNC(=O)OC(COC)CN1CCN(c2ccccc2C)CC1 (stereo not given)	inactive: > 10 µM
O=C(O)/C=C/c1c2ccc(=O)c(O)c-2oc2c(O)c(O)ccc12	inactive: 30.1 µM
O=C(O)c1cccc(Nc2c(C(=O)O)cccc2[N+](=O)[O-])c1	inactive: > 100 µM
CCOC(=O)NC1=C(N2CC2)C(=O)C(NC(=O)OCC)=C(N2CC2)C1=O [DIAZIQUONE]	inactive: 16.7 µM
CN/N=C(/CCN1CCCC1)CC(c1ccccc1)c1c(O)c2ccccc2oc1=O (stereo not given)	inactive: > 100 µM
O=C(O)c1cc2ccccc2c(/N=N/c2ccc(S(=O)(=O)O)cc2)c1O	inactive: > 100 µM

SMILES	GI50
CC(=O)O[C@H]1CC[C@@]2(C)C(=CC[C@H]3[C@@H]4C[C@H](N5CCN(C)CC5)[C@H](OC(C)=O)[C@@]4(C)CC[C@@H]32)C1	inactive: 14.8 µM
O=C(O)CSC(NC(=O)C(C(F)(F)F)C(F)(F)F)(C(F)(F)F)C(F)(F)F	inactive: > 100 µM
NNC(=O)c1cc(=O)[nH][nH]1	inactive: > 100 µM
OCCCSc1ccccc1SCCCO	inactive: > 100 µM
COC(=O)/C=C\C(C#N)(C#N)/N=C/c1cc(Br)cs1	inactive: 15.5 µM
CC1=C2C(=O)NN=C2CCN1c1ccc(Br)cc1	inactive: > 100 µM
Cc1c(CN2CCN(C)CC2)c(CN2CCN(C)CC2)c(C)n1-c1ccc(Cl)cc1	inactive: 35.6 µM
CCOC(=O)/C=C/C1OC(C)(C)OC1/C=C/C(=O)OCC (stereo not given)	inactive: 27.9 µM
CCS(CC)(CC)CC1CCCC2=CCC(P(=O)(c3ccccc3)c3ccccc3)CC21 (stereo not given)	inactive: 12.1 µM
Cc1c(Cl)ccc2c1NC(=O)C2(O)CC(=O)c1cccc2ccccc12 (stereo not given)	inactive: > 100 µM
C[n+]1cccc2ccc(OC(=O)c3ccccc3)cc21	inactive: > 100 µM
Cc1ncc([N+](=O)[O-])n1CCN=[N+]=[N-]	inactive: > 100 µM
O=C1Cc2c(-c3ccc(Cl)cc3)cc(-c3ccccc3)nc2-c2ccccc2N1	inactive: 8.24 µM
N=C(c1ccccc1)N(c1ccccc1)c1ccccc1	inactive: > 100 µM
CC(=O)Oc1cc(C(F)(F)F)ccc1C(=O)OC1(C)OC(=O)c2ccc(C(F)(F)F)cc2O1 (stereo not given)	inactive: > 100 µM
COc1ccc(S(=O)(=O)n2c3c(c4ccccc42)[C@@H]2[C@@H](CCCN2C(=O)C[S+]([O-])c2ccc(C)cc2)[C@H](Cl)C3)cc1 (stereo not given in full)	inactive: > 100 µM
C[C@@H]1CC[C@@H]2[C@@H](C1)O[C@@H]([C@H](C)OCc1ccccc1)SC2(C)C	inactive: 21.1 µM
NC(CCC(=O)NC(CSSCCCCS(=O)O)C(=O)NCC(=O)O)C(=O)O (stereo not given)	inactive: > 100 µM
O=C1C=C(c2c(O)ccc3ccccc23)c2cc(O)ccc2C1=O	inactive: 19 µM
CCOC(=O)C(CS)NC(=O)CCCCCCCC(=O)O (stereo not given)	inactive: > 100 µM
O=C1/C(=C2\SCC(=O)N2c2ccccc2)SC(=S)N1c1ccccc1	inactive: 29.1 µM
